According to the supplement of paper PMC8728848:
This is one part of the list.

Key:
Experiment in all cases: glycan array binding signal (z-score within array); higher = stronger binding
Settings in all cases: glycan notation: IUPAC condensed, linker removed
[1] = molecular target: Fuc(a1-2)[GalNAc(a1-3)]Gal(b1-3)GalNAc(b1-3)Gal(a1-4)Gal(b1-4)Glc
In short: (§1)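 From the Consortium for Functional Glycomics database, 3228 arrays were curated, keeping only those whose protein sequence was available. Binding is given as a within-array Z-score averaged across arrays sharing a protein sequence and across linkers. Negative Z-scores can be read as non-binding.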

[2] = molecular target: Fuc(a1-2)[GalNAc(a1-3)]Gal(b1-3)GlcNAc
In short: as §1

[3] = molecular target: Fuc(a1-2)[GalNAc(a1-3)]Gal(b1-3)GlcNAc(b1-2)Man(a1-3)[Fuc(a1-2)[GalNAc(a1-3)]Gal(b1-3)GlcNAc(b1-2)Man(a1-6)]Man(b1-4)GlcNAc(b1-4)GlcNAc
In short: as §1

[4] = molecular target: Fuc(a1-2)[GalNAc(a1-3)]Gal(b1-3)GlcNAc(b1-2)Man(a1-3)[Fuc(a1-2)[GalNAc(a1-3)]Gal(b1-3)GlcNAc(b1-2)Man(a1-6)]Man(b1-4)GlcNAc(b1-4)[Fuc(a1-6)]GlcNAc
In short: as §1

[5] = molecular target: Fuc(a1-2)[GalNAc(a1-3)]Gal(b1-3)GlcNAc(b1-3)GalNAc
In short: as §1

[6] = molecular target: Fuc(a1-2)[GalNAc(a1-3)]Gal(b1-3)GlcNAc(b1-6)GalNAc
In short: as §1

[7] = molecular target: Fuc(a1-2)[GalNAc(a1-3)]Gal(b1-4)Glc
In short: as §1

[8] = molecular target: Fuc(a1-2)[GalNAc(a1-3)]Gal(b1-4)GlcNAc
In short: as §1

[9] = molecular target: Fuc(a1-2)[GalNAc(a1-3)]Gal(b1-4)GlcNAc(b1-2)Man
In short: as §1

[10] = molecular target: Fuc(a1-2)[GalNAc(a1-3)]Gal(b1-4)GlcNAc(b1-2)Man(a1-3)[Fuc(a1-2)[GalNAc(a1-3)]Gal(b1-4)GlcNAc(b1-2)Man(a1-6)]Man(b1-4)GlcNAc(b1-4)GlcNAc
In short: as §1

[11] = molecular target: Fuc(a1-2)[GalNAc(a1-3)]Gal(b1-4)GlcNAc(b1-2)Man(a1-3)[Fuc(a1-2)[GalNAc(a1-3)]Gal(b1-4)GlcNAc(b1-2)Man(a1-6)]Man(b1-4)GlcNAc(b1-4)[Fuc(a1-6)]GlcNAc
In short: as §1

[12] = molecular target: Fuc(a1-2)[GalNAc(a1-3)]Gal(b1-4)GlcNAc(b1-2)Man(a1-3)[GalNAc(a1-3)[Fuc(a1-2)]Gal(b1-4)GlcNAc(b1-2)Man(a1-6)]Man(b1-4)GlcNAc(b1-4)GlcNAc
In short: as §1

[13] = molecular target: Fuc(a1-2)[GalNAc(a1-3)]Gal(b1-4)GlcNAc(b1-3)Gal(b1-4)GlcNAc
In short: as §1

[14] = molecular target: Fuc(a1-2)[GalNAc(a1-3)]Gal(b1-4)GlcNAc(b1-3)Gal(b1-4)GlcNAc(b1-3)Gal(b1-4)GlcNAc
In short: as §1

[15] = molecular target: Fuc(a1-2)[GalNAc(a1-3)]Gal(b1-4)GlcNAc(b1-3)GalNAc
In short: as §1

[16] = molecular target: Fuc(a1-2)[GalNAc(a1-3)]Gal(b1-4)GlcNAc(b1-3)[Fuc(a1-2)[GalNAc(a1-3)]Gal(b1-4)GlcNAc(b1-6)]GalNAc
In short: as §1

[17] = molecular target: Fuc(a1-2)[GalNAc(a1-3)]Gal(b1-4)GlcNAc(b1-6)GalNAc
In short: as §1

[18] = molecular target: Fuc(a1-2)[GalNAc(a1-3)]Gal(b1-4)[Fuc(a1-3)]GlcNAc
In short: as §1

[19] = molecular target: Fuc(a1-2)[GalNAc(a1-3)]Gal(b1-4)[Fuc(a1-3)]GlcNAc(b1-3)GalNAc
In short: as §1

[20] = molecular target: Fuc(a1-2)[GalNAc(a1-4)]Gal(b1-4)GlcNAc
In short: as §1

[21] = molecular target: Fuc(a1-2)[GalNAc(b1-3)]Gal
In short: as §1

Fuc(a1-3)GlcNAc = molecular target: Fuc(a1-3)GlcNAc
In short: as §1

[22] = molecular target: Fuc(a1-3)[Gal(b1-4)]Glc6S
In short: as §1

[23] = molecular target: Fuc(a1-3)[Gal(b1-4)]GlcNAc
In short: as §1

[24] = molecular target: Fuc(a1-3)[Gal(b1-4)]GlcNAc(b1-2)Man
In short: as §1

[25] = molecular target: Fuc(a1-3)[Gal(b1-4)]GlcNAc(b1-2)Man(a1-3)[Fuc(a1-3)[Gal(b1-4)]GlcNAc(b1-2)Man(a1-6)]Man(b1-4)GlcNAc(b1-4)GlcNAc
In short: as §1

[26] = molecular target: Fuc(a1-3)[Gal(b1-4)]GlcNAc(b1-2)Man(a1-3)[Fuc(a1-3)[Gal(b1-4)]GlcNAc(b1-2)Man(a1-6)]Man(b1-4)GlcNAc(b1-4)[Fuc(a1-6)]GlcNAc
In short: as §1

[27] = molecular target: Fuc(a1-3)[Gal(b1-4)]GlcNAc(b1-2)Man(a1-6)[Gal(b1-4)GlcNAc(b1-2)Man(a1-3)]Man(b1-4)GlcNAc(b1-4)GlcNAc
In short: as §1

[28] = molecular target: Fuc(a1-3)[Gal(b1-4)]GlcNAc(b1-3)Gal(b1-3)[Fuc(a1-4)]GlcNAc
In short: as §1

[29] = molecular target: Fuc(a1-3)[Gal(b1-4)]GlcNAc(b1-3)Gal(b1-4)[Fuc(a1-3)]GlcNAc
In short: as §1

[30] = molecular target: Fuc(a1-3)[Gal(b1-4)]GlcNAc(b1-3)Gal(b1-4)[Fuc(a1-3)]GlcNAc(b1-3)Gal(b1-4)[Fuc(a1-3)]GlcNAc
In short: as §1

[31] = molecular target: Fuc(a1-3)[Gal(b1-4)]GlcNAc(b1-3)GalNAc
In short: as §1

[32] = molecular target: Fuc(a1-3)[Gal(b1-4)]GlcNAc(b1-4)Gal(b1-4)[Fuc(a1-3)]GlcNAc
In short: as §1

[33] = molecular target: Fuc(a1-3)[Gal(b1-4)]GlcNAc(b1-4)Gal(b1-4)[Fuc(a1-3)]GlcNAc(b1-4)Gal(b1-4)[Fuc(a1-3)]GlcNAc
In short: as §1

[34] = molecular target: Fuc(a1-3)[Gal(b1-4)]GlcNAc(b1-6)GalNAc
In short: as §1

[35] = molecular target: Fuc(a1-3)[Gal(b1-4)]GlcNAc(b1-6)[Gal(b1-3)GlcNAc(b1-3)]Gal(b1-4)Glc
In short: as §1

[36] = molecular target: Fuc(a1-3)[Gal(b1-4)]GlcNAc6S
In short: as §1

B1: MGL6A (Homo sapiens) (protein)
chain: MTRTYENFQYLENKVKVQGFKNGPLPLQSLLQRLCSGPCHLLLSLGLGLLLLVIICVVGFQNSKFQRDLVTLRTDFSNFTSNTVAEIQALTSQGSSLEETIASLKAEVEGFKQERQAVHSEMLLRVQQLVQDLKKLTCQVATLNNNGEEASTEGTCCPVNWVEHQDSCYWFSHSGMSWAEAEKYCQLKNAHLVVINSREEQNFVQKYLGSAYTWMGLSDPEGAWKWVDGTDYATGFQNWKPGQPDDWQGHGLGGGEDCAHFHPDGRWNDDVCQRPYHWVCEAGLGQTSQESH
[1]
  glycan array binding signal (z-score): -0.19
[2]
  glycan array binding signal (z-score): -0.075
[3]
  glycan array binding signal (z-score): -0.173
[4]
  glycan array binding signal (z-score): 0.061
[5]
  glycan array binding signal (z-score): -0.234
[6]
  glycan array binding signal (z-score): 3.63
[7]
  glycan array binding signal (z-score): 0.534
[8]
  glycan array binding signal (z-score): 0.463
[9]
  glycan array binding signal (z-score): -0.017
[10]
  glycan array binding signal (z-score): 1.29
[11]
  glycan array binding signal (z-score): -0.299
[12]
  glycan array binding signal (z-score): -0.284
[13]
  glycan array binding signal (z-score): -0.074
[14]
  glycan array binding signal (z-score): -0.038
[15]
  glycan array binding signal (z-score): -0.234
[16]
  glycan array binding signal (z-score): -0.081
[17]
  glycan array binding signal (z-score): 3.79
[18]
  glycan array binding signal (z-score): -0.22
[19]
  glycan array binding signal (z-score): -0.232
[20]
  glycan array binding signal (z-score): 4.68
[21]
  glycan array binding signal (z-score): 4.73
Fuc(a1-3)GlcNAc
  glycan array binding signal (z-score): -0.244
[22]
  glycan array binding signal (z-score): -0.234
[23]
  glycan array binding signal (z-score): -0.273
[24]
  glycan array binding signal (z-score): -0.284
[25]
  glycan array binding signal (z-score): -0.36
[26]
  glycan array binding signal (z-score): -0.26
[27]
  glycan array binding signal (z-score): 1.06
[28]
  glycan array binding signal (z-score): -0.288
[29]
  glycan array binding signal (z-score): -0.249
[30]
  glycan array binding signal (z-score): -0.267
[31]
  glycan array binding signal (z-score): -0.265
[32]
  glycan array binding signal (z-score): -0.371
[33]
  glycan array binding signal (z-score): -0.024
[34]
  glycan array binding signal (z-score): 0.377
[35]
  glycan array binding signal (z-score): -0.265
[36]
  glycan array binding signal (z-score): -0.278
